Measurements: PubChem BioAssay AID588579 (National Center for Advancing Translational Sciences (NCATS), 2011)
The whole screen tested about 400,000 compounds, of which about 2,200 (0.55%) were called active. Inconclusive results (about 1%) are left out. The call rests on the fitted dose curve; in most records, active means well fitted inhibition curve with a large enough effect; inconclusive means small, poorly fitted or top-dose-only effect, or another doubt; inactive means no such curve, though single readings can be large or run the other way. Only a part is listed here, and it is no random draw. Some compounds were tested as several samples or in several runs, with calls that do not always agree.
On the % scale 0 is the no-effect control and ±100 the full control effect; potency means the concentration at half of the fitted maximal effect.

What follows are compounds tested against DNA polymerase kappa (Homo sapiens) (UniProt Q9UBT6) (assay: qHTS for Inhibitors of Polymerase Kappa). Conditions: purified Pol kappa, fluorescent DNA synthesis assay, 10 min; series mostly up to 107 µM; activity, negative = inhibition: at the top concentration.
Sequence of UniProt Q9UBT6 (Q9UBT6 whole entry, looked up): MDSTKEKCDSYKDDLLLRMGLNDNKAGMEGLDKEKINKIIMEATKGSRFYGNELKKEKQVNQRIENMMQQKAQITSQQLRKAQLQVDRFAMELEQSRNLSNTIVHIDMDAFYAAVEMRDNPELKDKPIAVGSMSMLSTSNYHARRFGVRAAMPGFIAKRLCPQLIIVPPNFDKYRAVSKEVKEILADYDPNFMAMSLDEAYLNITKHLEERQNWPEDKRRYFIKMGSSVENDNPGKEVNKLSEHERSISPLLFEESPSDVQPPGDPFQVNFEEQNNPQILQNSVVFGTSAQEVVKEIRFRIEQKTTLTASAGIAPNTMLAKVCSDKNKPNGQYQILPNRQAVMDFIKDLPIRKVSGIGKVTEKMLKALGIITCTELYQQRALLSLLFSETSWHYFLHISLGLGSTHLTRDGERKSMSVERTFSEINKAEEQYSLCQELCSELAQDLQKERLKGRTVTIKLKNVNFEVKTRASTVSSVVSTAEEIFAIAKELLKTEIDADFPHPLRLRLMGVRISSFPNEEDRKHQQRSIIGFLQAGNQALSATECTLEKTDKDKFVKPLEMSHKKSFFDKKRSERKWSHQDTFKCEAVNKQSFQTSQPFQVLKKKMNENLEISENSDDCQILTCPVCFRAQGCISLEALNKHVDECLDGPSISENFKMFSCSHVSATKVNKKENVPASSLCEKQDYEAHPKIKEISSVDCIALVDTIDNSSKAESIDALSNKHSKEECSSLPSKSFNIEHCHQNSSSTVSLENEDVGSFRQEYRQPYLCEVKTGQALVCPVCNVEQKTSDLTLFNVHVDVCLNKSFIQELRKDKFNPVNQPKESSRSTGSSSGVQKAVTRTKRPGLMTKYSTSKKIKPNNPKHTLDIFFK
Summary of the method: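 Kinetic fluorescence readout at 0 and 10 min followed reaction start with substrate at 50 nM final. Beforehand, enzyme (10 nM Pol kappa) stood 15 min with compound at room temperature; buffer-only wells were negative controls.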
For `O=C(O)c1cc(O)c2c(c1)[C@H]([C@H]1c3cc(C(=O)O)cc(O)c3C(=O)c3c(O[C@@H]4OC(CO)C(O)C(O)C4O)cccc31)c1cccc(O[C@@H]3OC(CO)C(O)C(O)C3O)c1C2=O` (stereo partly specified), the Potency was active: 0.891 µM.
With `CC(C)CN(C(=O)COC(=O)c1cc2c(s1)CCC2)C1CCS(=O)(=O)C1` (stereo unspecified) the Potency was active: 39.8 µM.
`O=Cc1c(Cl)cccc1Cl` was tested, and the Potency was “inactive”.
With `Cc1ccc(NC(=O)CCc2c(C)nn(-c3ccc(N4CCCCC4)nn3)c2C)cc1F` the Potency was “inactive”.
`c1ccc2c(Nc3ccncc3)nc(-c3ccoc3)nc2c1` was tested, and the Potency was active: 28.2 µM.
`CCNC(=O)[C@H]1O[C@@H](n2cnc3c(N)nc(NCCc4ccc(CCC(=O)O)cc4)nc32)[C@H](O)[C@@H]1O` was tested, and the “activity, negative = inhibition” value was inactive: 14.1%.
For `O=C(N/N=C/C=C/c1ccco1)c1cccnc1`, the “activity, negative = inhibition” value was inactive: -42.1%.
In the case of `CCOC(=O)c1ccc(NC(=O)CSc2ccc(-c3ccccn3)nn2)cc1`, the “activity, negative = inhibition” value is reported as inactive: -18.4%.
For `CC(=O)C[C@@H](O)CC(=O)[C@H]1OC(=O)CCCCCc2ccccc21`, the “activity, negative = inhibition” value was inactive: 5.77%.
With `COc1ccc(NC(=O)c2ccco2)cc1NC(=O)c1c(OC)cccc1OC` the “activity, negative = inhibition” value was inactive: -1.18%.
With `c1ccc2c(c1)CCCC2C1=NCCN1` (stereo unspecified) the Potency was “inactive”.
With `O=C(Cc1cnn(-c2ccccc2)c1)c1ccc(O)c(O)c1O` the Potency was active: 2.51 µM.
With `Oc1ccc(NCc2ccc(OCc3ccccc3)cc2)cc1` the “activity, negative = inhibition” value was inactive: -15.5%.
For `CCCC[C@@H](C)/C=C(C)/C=C(\C)C(=O)NC1=C[C@@](O)(/C=C/C=C/C=C/C(=O)NC2=C(O)CCC2=O)[C@@H]2O[C@@H]2C1=O`, the Potency was active: 26.7 µM.
`COC(=O)[C@H]1[C@H]2CC3c4[nH]c5ccccc5c4CCN3C[C@@H]2CC[C@@H]1O` (stereo partly specified) was tested, and the activity, negative = inhibition was inactive: -11.4% [at 19.4 µM].
For `Cc1cccc(C(=O)N=c2c(C#N)cc3c(=O)n4cccc(C)c4nc3n2Cc2ccco2)c1`, the Potency was active: 28.2 µM.
`O=C(Nc1ccc2nc(-c3ccc4nc[nH]c4c3)[nH]c2c1)c1cccs1` was tested, and the Potency was active: 35.5 µM.
`O=C(CSc1ncnc2sc3c(c12)CCC3)N1CCOCC1` was tested, and the Potency was active: 79.4 µM.
In the case of `COc1ccccc1NCCC(=O)OCC(=O)NCc1ccco1`, the Potency is reported as active: 79.4 µM.
In the case of `CCN(CC)C(=O)CC(c1ccc(OC)cc1)c1c(OC)cc(OC)c2c(-c3ccccc3)cc(=O)oc12` (stereo unspecified), the Potency is reported as active: 79.4 µM.
`COc1ccccc1[C@@H]1C(c2ccccc2)=NN(c2ccccc2)[C@H]1C(=O)N1CCOC1=O` was tested, and the “activity, negative = inhibition” value was inactive: 6.09%.
`O=C(c1ccc(C(F)(F)F)cc1)N1CCC(=O)N(C(COCc2ccc(Cl)cc2)Cc2ccccc2)CC1` (stereo unspecified) was tested, and the “activity, negative = inhibition” value was inactive: 4.5%.
With `CCCCCCCCCCCCCCCC[n+]1ccc(/C=C/c2c[nH]c3ccccc23)c2ccccc21` the “activity, negative = inhibition” value was inactive: 95.3%.
With `N#C/C(=C\c1ccc(O)c(O)c1)C(=O)Nc1ccccc1` the “activity, negative = inhibition” value was inactive: 0%.
`OC[C@H]1OC(O)[C@H](O)[C@@H](O)[C@@H]1O` (stereo partly specified) was tested, and the “activity, negative = inhibition” value was inactive: 19.2% [at 60.1 µM].
For `O=C(O)[C@H]1CCCN1`, the Potency was “inactive”.
For `O=C1NC(=O)C(c2ccccc2[N+](=O)[O-])=C1Nc1ccc(O)c(Cl)c1`, the “activity, negative = inhibition” value was inactive: -8.4%.
`COc1cc(OC)c2c(=O)cc(-c3ccccc3)oc2c1` was tested, and the “activity, negative = inhibition” value was inactive: 24.5%.
With `O=C(OCCc1ccccc1)c1cc(O)c(O)c(O)c1` the Potency was active: 44.7 µM.
In the case of `Cc1c(C(=O)OCCOC(C)C)[nH]c2c1C(=O)CC(c1ccco1)C2` (stereo unspecified), the Potency is reported as active: 79.4 µM.
`O=C1Nc2ccccc2/C1=N\N=C\c1ccc(O)c(O)c1` was tested, and the Potency was active: 5.62 µM.
In the case of `CC1OC(OCC2OC(Oc3c(-c4ccc(O)cc4)oc4cc(O)cc(O)c4c3=O)C(O)C(O)C2O)C(O)C(O)C1O` (stereo unspecified), the Potency is reported as active: 28.2 µM.
`CC[C@]1(O)CC2CN(CCc3c([nH]c4ccccc34)[C@@](C(=O)OC)(c3cc4c(cc3OC)N(C)[C@H]3[C@@](O)(C(=O)OC)[C@H](OC(C)=O)[C@]5(CC)C=CCN6CC[C@]43[C@@H]65)C2)C1` (stereo partly specified) was tested, and the Potency was “inactive”.
For `OCC1OC(O)C(O)C(O)C1O` (stereo unspecified), the “activity, negative = inhibition” value was inactive: -3.12% [at 60.1 µM].
`COC(=O)C1C(O)CC[C@H]2CN3CCc4c([nH]c5ccccc45)C3C[C@H]12` (stereo partly specified) was tested, and the “activity, negative = inhibition” value was inactive: -8.89% [at 60.1 µM].
`C=C1c2ccccc2O[C@H](C(=O)OCC)[C@@H]1C1CCCCC1` was tested, and the “activity, negative = inhibition” value was inactive: -6.72%.
For `CN(C)c1ccc(/C=C/c2nc3ccccc3s2)cc1`, the “activity, negative = inhibition” value was inactive: -3.57%.
For `COc1ccc(C2=Nn3c(nnc3-c3ccccc3OC)SC2)cc1OC1CCCC1`, the Potency was active: 39.8 µM.
For `COC1=CC(=O)C(C2CC(=O)c3c(O)cc(O)cc3O2)=CC1=O` (stereo unspecified), the Potency was active: 31.6 µM.
`CC/C=C\C/C=C\C/C=C\C/C=C\C/C=C\CCCC(=O)O` was tested, and the activity, negative = inhibition was inactive: -1.43% [at 19.4 µM].
With `COc1ccc([C@@H]2CC(=O)c3c(O)cc(O[C@@H]4O[C@H](CO)[C@@H](O)[C@H](O)[C@H]4OC4O[C@@H](C)[C@H](O)[C@@H](O)[C@H]4O)cc3O2)cc1O` (stereo partly specified) the “activity, negative = inhibition” value was inactive: 13.9% [at 60.1 µM].
